From the supplement of paper PMC4967469
Lines with a small IC50 respond at low doses; fits outside the tested doses are given as limits. AUC sums up the same curve from the lowest dose to the 256-fold higher top dose; the more sensitive the line, the further below 1. Any top dose called inferred was derived from the fitted curves, not read from the paper.

Compound: Cn1cc(C2=C(c3cn(C4CCN(Cc5ccccn5)CC4)c4ccccc34)C(=O)NC2=O)c2ccccc21 [LY317615]
Assay: Viability of human cancer cell lines after 72 h of drug (GDSC screen)
Conditions: top dose inferred
Description: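 Human cancer cell lines in 384-well plates, medium with 10% serum, drug for 72 h over a 256-fold dose range (nine 2-fold or five 4-fold steps up to the top dose). Adherent lines were fixed and stained with the nucleic acid dye Syto60, suspension lines read with resazurin; signal relative to control wells, capped at 0 and 100%. One two-parameter sigmoid per drug and line, fitted in a mixed model over all curves with the slope shared within a line.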

| Cell Line | AUC | IC50 [µM] |
| --- | --- | --- |
| Ramos-2G6-4C10 (Burkitt lymphoma, suspension, top dose 20 µM) | 0.866 | 13.7 |
| SAS (head and neck, adherent, top dose 20 µM) | 0.894 | > 20 |
| SAT (head and neck, adherent, top dose 20 µM) | 0.959 | > 20 |
| SBC-3 (small cell lung carcinoma, adherent, top dose 20 µM) | 0.882 | 17.7 |
| SBC-5 (small cell lung carcinoma, adherent, top dose 20 µM) | 0.993 | > 20 |
| SCC90 (head and neck, adherent, top dose 20 µM) | 0.886 | > 20 |
| SCC-3 (B-cell lymphoma, suspension, top dose 20 µM) | 0.904 | 13.3 |
| SCC-4 (head and neck, adherent, top dose 20 µM) | 0.963 | > 20 |
| SCC-9 (head and neck, adherent, top dose 20 µM) | 0.548 | 1.75 |
| SCC-15 (head and neck, adherent, top dose 20 µM) | 0.953 | > 20 |
| SCC-25 (head and neck, adherent, top dose 20 µM) | 0.843 | 16.9 |
| SCH (stomach, adherent, top dose 20 µM) | 0.988 | > 20 |
| SF126 (glioma, adherent, top dose 20 µM) | 0.984 | > 20 |
| SF268 (glioma, adherent, top dose 20 µM) | 0.947 | > 20 |
| SF295 (glioma, adherent, top dose 20 µM) | 0.904 | > 20 |
| SF539 (glioma, adherent, top dose 20 µM) | 0.878 | 16.7 |
| SH-4 (melanoma, adherent, top dose 20 µM) | 0.757 | 10.8 |
| SHP-77 (small cell lung carcinoma, semi-adherent, top dose 20 µM) | 0.919 | > 20 |
| SIG-M5 (acute myeloid leukaemia, suspension, top dose 20 µM) | 0.722 | 4.4 |
| SIMA (neuroblastoma, adherent, top dose 20 µM) | 0.849 | 18.2 |
| SISO (cervix, adherent, top dose 20 µM) | 0.88 | 19.2 |

| Cell Line | AUC | IC50 [µM] |
| --- | --- | --- |
| SJRH30 (rhabdomyosarcoma, adherent, top dose 20 µM) | 0.894 | > 20 |
| SJSA-1 (bone, adherent, top dose 20 µM) | 0.939 | > 20 |
| SK-CO-1 (large intestine, adherent, top dose 20 µM) | 0.954 | > 20 |
| SK-ES-1 (Ewing sarcoma, semi-adherent, top dose 20 µM) | 0.959 | > 20 |
| SK-GT-4 (oesophagus, adherent, top dose 20 µM) | 0.69 | 4.88 |
| SK-HEP-1 (liver, adherent, top dose 20 µM) | 0.989 | > 20 |
| SK-LMS-1 (soft tissue, adherent, top dose 20 µM) | 0.812 | 10.1 |
| SK-LU-1 (lung adenocarcinoma, adherent, top dose 20 µM) | 0.631 | 3.18 |
| SK-MEL-1 (melanoma, suspension, top dose 20 µM) | 0.975 | > 20 |
| SK-MEL-2 (melanoma, adherent, top dose 20 µM) | 0.799 | 9.99 |
| SK-MEL-3 (melanoma, adherent, top dose 20 µM) | 0.981 | > 20 |
| SK-MEL-5 (melanoma, adherent, top dose 20 µM) | 0.923 | > 20 |
| SK-MEL-24 (melanoma, adherent, top dose 20 µM) | 0.9 | > 20 |
| SK-MEL-28 (melanoma, adherent, top dose 20 µM) | 0.919 | > 20 |
| SK-MEL-30 (melanoma, adherent, top dose 20 µM) | 0.93 | > 20 |
| SK-MES-1 (lung squamous cell carcinoma, adherent, top dose 20 µM) | 0.742 | 6.6 |
| SK-MG-1 (glioma, adherent, top dose 20 µM) | 0.78 | 8.35 |
| SK-MM-2 (myeloma, suspension, top dose 20 µM) | 0.781 | 8.68 |
| SK-N-AS (neuroblastoma, adherent, top dose 20 µM) | 0.714 | 5.57 |
| SK-N-DZ (neuroblastoma, adherent, top dose 20 µM) | 0.987 | > 20 |
| SK-N-FI (neuroblastoma, adherent, top dose 20 µM) | 0.904 | > 20 |

| Cell Line | AUC | IC50 [µM] |
| --- | --- | --- |
| SK-N-SH (neuroblastoma, adherent, top dose 20 µM) | 0.933 | > 20 |
| SK-OV-3 (ovary, adherent, top dose 20 µM) | 0.381 | 0.538 |
| SK-PN-DW (Ewing sarcoma, adherent, top dose 20 µM) | 0.914 | > 20 |
| SK-UT-1 (soft tissue, adherent, top dose 20 µM) | 0.987 | > 20 |
| SKG-IIIa (cervix, adherent, top dose 20 µM) | 0.983 | > 20 |
| SKN (uterus, adherent, top dose 20 µM) | 0.766 | 8.93 |
| SKN-3 (head and neck, adherent, top dose 20 µM) | 0.983 | > 20 |
| SLVL (B-cell lymphoma, suspension, top dose 20 µM) | 0.576 | 2.05 |
| SN12C (kidney, adherent, top dose 20 µM) | 0.98 | > 20 |
| SNB75 (glioma, adherent, top dose 20 µM) | 0.904 | > 20 |
| SNG-M (endometrium, adherent, top dose 20 µM) | 0.561 | 1.82 |
| SNU-61 (large intestine, adherent, top dose 20 µM) | 0.625 | 3.09 |
| SNU-81 (large intestine, adherent, top dose 20 µM) | 0.91 | > 20 |
| SNU-175 (large intestine, suspension, top dose 20 µM) | 0.677 | 3.76 |
| SNU-182 (liver, adherent, top dose 10.24 µM) | 0.83 | 6.82 |
| SNU-387 (liver, adherent, top dose 20 µM) | 0.845 | 17.6 |
| SNU-398 (liver, adherent, top dose 20 µM) | 0.983 | > 20 |
| SNU-407 (large intestine, adherent, top dose 20 µM) | 0.932 | > 20 |
| SNU-423 (liver, adherent, top dose 20 µM) | 0.681 | 4.39 |
| SNU-449 (liver, adherent, top dose 20 µM) | 0.856 | 18.6 |
| SNU-475 (liver, adherent, top dose 20 µM) | 0.598 | 2.25 |

| Cell Line | AUC | IC50 [µM] |
| --- | --- | --- |
| SNU-1040 (large intestine, adherent, top dose 20 µM) | 0.401 | 0.607 |
| SNU-C1 (large intestine, suspension, top dose 20 µM) | 0.941 | > 20 |
| SNU-C2B (large intestine, adherent, top dose 20 µM) | 0.77 | 10 |
| SNU-C5 (large intestine, adherent, top dose 20 µM) | 0.962 | > 20 |
| SR (lymphoid neoplasm, suspension, top dose 20 µM) | 0.799 | 8.48 |
| ST486 (Burkitt lymphoma, suspension, top dose 20 µM) | 0.508 | 1.31 |
| STS-0421 (soft tissue, adherent, top dose 20 µM) | 0.917 | > 20 |
| SU8686 (pancreas, adherent, top dose 20 µM) | 0.895 | > 20 |
| SU-DHL-1 (anaplastic large cell lymphoma, suspension, top dose 20 µM) | 0.892 | 12.1 |
| SU-DHL-4 (B-cell lymphoma, suspension, top dose 20 µM) | 0.726 | 4.41 |
| SU-DHL-5 (B-cell lymphoma, suspension, top dose 20 µM) | 0.622 | 2.47 |
| SU-DHL-6 (B-cell lymphoma, suspension, top dose 20 µM) | 0.561 | 1.76 |
| SU-DHL-8 (B-cell lymphoma, suspension, top dose 20 µM) | 0.888 | 20 |
| SU-DHL-10 (B-cell lymphoma, suspension, top dose 20 µM) | 0.655 | 2.96 |
| SU-DHL-16 (B-cell lymphoma, suspension, top dose 20 µM) | 0.909 | 14 |
| SUIT-2 (pancreas, adherent, top dose 20 µM) | 0.932 | > 20 |
| SUP-B15 (lymphoblastic leukaemia, suspension, top dose 20 µM) | 0.419 | 0.759 |
| SUP-HD1 (Hodgkin lymphoma, suspension, top dose 20 µM) | 0.873 | 17.6 |
